# Data reported in article PMC11889217 (Nature Communications, 2025).
# B1: apoGAD65 (N-terminally truncated glutamate decarboxylase 65, […], purified without added PLP) (enzyme)
# chain: not shown
# Biological target: the molecule itself
# Assay: cryo-EM structure
protein,measurement,value
B1,stoichiometry N,2
